# Reference: the supplement of paper PMC3334620
# In all, about 33,000 sequences were measured (“E-score (-0.5 to 0.5)”: median about -0.017, highest 2% from about 0.3 on). The list shows a part of the results.
# Biological target: T1, Sut1 (UniProt P53032)
# T1 sequence: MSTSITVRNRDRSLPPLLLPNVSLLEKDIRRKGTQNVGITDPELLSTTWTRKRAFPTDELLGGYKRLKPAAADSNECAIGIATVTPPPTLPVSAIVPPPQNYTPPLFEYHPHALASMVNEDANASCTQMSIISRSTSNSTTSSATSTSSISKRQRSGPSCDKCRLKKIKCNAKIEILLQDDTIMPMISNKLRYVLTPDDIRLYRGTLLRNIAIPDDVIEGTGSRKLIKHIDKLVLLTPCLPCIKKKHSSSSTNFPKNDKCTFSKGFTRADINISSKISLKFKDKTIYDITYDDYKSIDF
# Assay: PBM E-score (8-mer binding enrichment) (E-score (-0.5 to 0.5)); higher = stronger / more preferred TF binding; most listed sequences are background and not binding sites
# Conditions: protein concentration: 200 nM; construct: GST-full length
# Experimental: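 Universal 'all 10-mer' protein binding microarrays (Agilent AMADID 015681) probed with GST-tagged S. cerevisiae TFs (full-length or DBD) made by in vitro transcription/translation (PURExpress), about 100-200 nM. Bound TF was detected with fluorescent anti-GST. Each ungapped 8-mer (which stands for itself and its reverse complement) is scored by the PBM enrichment score (E-score), a modified Wilcoxon-Mann-Whitney statistic from -0.5 to +0.5, computed with the Universal PBM Analysis Suite. Scale: above 0.35 generally sequence-specific binding.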
row,Sequence,PBM E-score
1,CACGGGCA,-0.148
2,CAGTAACC,-0.00589
3,ATTCCCCA,-0.0642
4,AACTTTGT,0.135
5,CTTCTGGC,-0.351
6,GGTTATCA,-0.0427
7,AGCGAGAC,-0.0806
8,CTTTTGTA,0.259
9,ACGACGGG,-0.225
10,CTCATGCC,-0.165
11,CCTGGACA,-0.274
12,GTGGTGAA,-0.0685
13,TGCAACCA,-0.0491
14,CTGCACCA,-0.218
15,CCAGGCAA,0.0413
16,CCTAGTAC,-0.0149
17,CGTTCAAA,0.142
18,AGTTCCTG,-0.111
19,CATTGCGA,-0.188
20,TGGCTCAA,-0.267
21,AATCTGAT,0.07
22,CCTCTTAC,-0.164

row,Sequence,PBM E-score
1,GGGTTAAC,0.0764
2,CCAGGTCA,-0.201
3,CAGCGTCA,-0.239
4,AGCAAACA,0.0396
5,GGATTCCC,-0.235
6,CATTGAGA,0.0506
7,ACTACCTA,-0.0655
8,GCTCTGCC,-0.128
9,CCCTAGCA,-0.309
10,GGTTTGCA,0.00025
11,AGCTTGGG,-0.134
12,GTGTAGAA,-0.035
13,CTATAGAC,-0.155
14,CGACGAAG,-0.00663
15,AATTACCC,-0.00645
16,CCAAAGCA,0.0507
17,CCAGAACC,-0.0656
18,GAAATGAA,0.28
19,CAGAATGA,-0.0822
20,ATCCTTGC,-0.184
21,AACCATTG,0.00486
22,AGCCATAC,-0.137

row,Sequence,PBM E-score
1,TGCACAAA,0.0959
2,CCCGGATC,0.213
3,CAGGGTCG,-0.173
4,AGGTTCCG,0.132
5,AAAGATCC,0.108
6,CTCTTTTA,-0.00723
7,CTTTTTAC,0.22
8,AAGATCGT,-0.147
9,CGGAATAA,0.306
10,ATGGTAAA,0.198
11,CACTGCAC,-0.208
12,AGTTCTTG,0.122
13,AAATCGTA,0.188
14,GTGTGTGA,0.0318
15,GAATGGTA,0.00303
16,ATGGCAAC,0.0647
17,GTTCTTCA,0.0769
18,CACACAGG,-0.122
19,ACAGACTC,-0.0578
20,GATGTTGC,0.00396
21,CACCCACG,-0.0788
22,ATATGGCA,-0.036

row,Sequence,PBM E-score
1,GCTGCCAA,-0.147
2,CGCTGTCA,-0.0571
3,ACCAGTTA,0.13
4,CCGTTTAA,0.196
5,AGTGTCTC,-0.0924
6,AATCCTCG,-0.164
7,GTGTATCA,0.17
8,GCTGCGGA,0.245
9,GGACCCTA,-0.234
10,ACAACAAG,0.0827
11,CAGCACAC,-0.223
12,ACTTCCCC,-0.252
13,TTCGACAA,0.0817
14,ACGTGCAT,-0.0593
15,CTAGCACA,-0.135
16,CGAGTAAC,0.152
17,CCCCAACG,-0.122
18,CTTAGGGA,-0.225
19,ACTCGTCA,-0.109
20,AAGTTAGG,-0.0983
21,ACTCCATC,0.156
22,AGTGTCAG,-0.0827

row,Sequence,PBM E-score
1,GACTCTAC,-0.0699
2,ATTAACCG,0.162
3,CAGTACTG,-0.247
4,ATGGATGC,-0.0754
5,TACTGGAA,0.012
6,GGAGGGCA,-0.112
7,CGGTCTAG,-0.0195
8,CAATTTCA,0.00344
9,AAAATACG,0.223
10,CACAGCGC,-0.202
11,GTCCTAAC,-0.14
12,CAATCGTA,0.181
13,ACTAGGGC,-0.224
14,AAGGGGGG,-0.395
15,ATCCAAAG,0.202
16,CGCCGCCG,-0.0805
17,AGATAATG,0.106
18,CGTTTGCC,-0.00944
19,GCCATCGC,-0.234
20,ATGAGGAC,-0.19
21,CACGCCGG,0.0532
22,TGAAAAAA,0.248
